PubChem BioAssay AID504466 (National Center for Advancing Translational Sciences (NCATS), 2011)
Out of some 330,000 compounds screened, about 4,200 (1.3%) were called active. The shares of active, inactive and inconclusive entries below differ from those in the screen. The call rests on the fitted dose curve; in most records, active means well fitted activation curve with a large enough effect; inconclusive means small, poorly fitted or top-dose-only effect; inactive means no such curve, though single readings can be large or run the other way. A potency beside an inconclusive call is a rough fit, not a confirmed value.

Experiment: qHTS screen for small molecules that induce genotoxicity in human embryonic kidney (HEK293T) cells expressing luciferase-tagged ELG1; further: nearly all actives have a fitted effect of over 60% in size
Conditions: HEK293T ELG1-luciferase reporter, luminescence, 16 h; series mostly up to 46 µM
Summary of the method: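 ELG1-luciferase HEK293T cells, 2,000/well; compound pinned in; 16 hr, 37 °C, 5% CO2; ONE-Glo, 30 min RT; luminescence on CCD imager.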
Potency means the concentration at half of the fitted maximal effect; tags describe the fitted curve by direction and shape.

Row | Compound | Potency
1 | CCCCN1C(=O)C(=O)N(CC(=O)N2N=C3/C(=C/c4ccco4)CCCC3C2c2ccco2)C1=O (centres undefined) | inconclusive: 23.1 µM [activator, single point]
2 | COc1ccc(-c2coc3cc(OC(C)=O)c(OC)cc3c2=O)cc1 | inconclusive: 18.3 µM [activator, partial curve]
3 | Oc1ccc(-c2nc3ccccc3s2)c(O)c1 | inconclusive: 8.2 µM [activator, partial curve]
4 | CCCCn1nnc(NC(=O)c2cc3ccccc3o2)n1 | active: 6.51 µM
5 | Oc1ccc(/C=N/NC(=S)NC2CC3CCC2C3)cc1 (centres undefined) | inconclusive: 8.2 µM [activator, partial curve, poor fit]
6 | Cc1ccc(-n2c(C)cc(C3=NNC(=NC4CC4)SC3)c2C)cc1C | inconclusive: 1.84 µM [activator, full curve]
7 | O=C(Nc1ccc(C(=O)N2CCCCC2)cc1)C1=CSCCO1 | inconclusive: 10.3 µM [activator, partial curve]
8 | CCCC(=O)OCC(=O)Nc1ccc(N=Nc2ccccc2)cc1 | active: 20.6 µM
9 | Cc1cc(C(=O)NNC(=O)COc2ccccc2Cl)n[nH]1 | inactive
10 | COc1ccc2c(c1)NC(c1ccc(N(C)C)cc1)c1cccn1-2 (centres undefined) | inactive
11 | c1ccc(-n2ncc3c(NCc4ccco4)ncnc32)cc1 | active: 10.3 µM
12 | C/C(=N\NC(=S)Nc1cccc(C)c1)c1cccc(N)c1 | inactive
13 | CCC(=O)Nc1ccc2nc(C3CC3)n(Cc3ccc(C(C)(C)C)cc3)c(=O)c2c1 | active: 1.64 µM
14 | CC(=O)Nc1ccc(N=NC2C(=O)N(C(N)=S)N=C2C)cc1 (centres undefined) | inconclusive: 20.6 µM [activator, partial curve, poor fit]
15 | Oc1ccccc1-c1nnc(SCCN2CCOCC2)n1Cc1ccccc1 | inconclusive: 18.4 µM [activator, single point]
16 | CCn1cnc2sc(C(=O)Nc3ccc4c(c3)OCO4)c(C)c2c1=O | active: 8.91 µM
17 | Cc1ccc(SCCC(=O)N2CCCC2)cc1 | active: 14.6 µM
18 | Cc1nc2ccc(NC(=O)NCc3ccco3)cc2s1 | inconclusive: 11.6 µM [activator, partial curve]
19 | O=C(NC(=S)Nc1ccccc1Br)C1CCCC1 | inconclusive: 13 µM [activator, partial curve, poor fit]
20 | Cc1onc(NC(=O)c2ccc(Cl)cc2Cl)c1Br | inconclusive: 18.3 µM [activator, partial curve, poor fit]
21 | COc1cccc(C(=O)Nc2cc(C)on2)c1OC | inconclusive: 16.4 µM [activator, partial curve]
22 | COc1cccc(C(=O)/C=C/c2ccc(SC)cc2)c1 | inactive
23 | Fc1ccc2nc(Nc3nc4c(s3)CCCC4)sc2c1 | inconclusive: 2.59 µM [activator, full curve]
24 | O=C(Nc1ccc2c(c1)OCCO2)Nc1ccc2c(c1)OCO2 | inconclusive: 0.411 µM [activator, full curve]
25 | COc1cccc2cc(-c3csc(NC(=O)CCC(=O)NCCCN4CCC(C)CC4)n3)c(=O)oc12 | inconclusive: 3.66 µM [activator, full curve]

Row | Compound | Potency
26 | Cn1cccc1/C=N/NC(=O)Cc1cccc2ccccc12 | inactive
27 | Cc1c(Cl)ccc2sc(NC(=O)c3ccco3)nc12 | inconclusive: 9.2 µM [activator, partial curve]
28 | CNC(=O)CSc1nnc(-c2cccnc2)n1CCc1ccccc1 | inconclusive: 25.9 µM [activator, partial curve, poor fit]
29 | CC1CCC(NC(=O)CNC(=O)c2cccs2)CC1 (centres undefined) | inconclusive: 6.51 µM [activator, single point]
30 | CCOc1ccc2nc(SCc3ccc(C(=O)OC)o3)[nH]c2c1 | inconclusive: 16.4 µM [activator, partial curve, poor fit]
31 | COc1cc(C(C)=O)ccc1O | inactive
32 | CCCn1cc2c(c1-c1ccc(C)cc1)c(=O)n(C)c(=O)n2C | inactive
33 | O=C(CSc1ccccc1F)Nc1ccc2c(c1)OCO2 | inconclusive: 13 µM [activator, partial curve]
34 | COc1ccc(NC(=S)Nc2cc(C)ccn2)c(OC)c1 | inconclusive: 10.3 µM [activator, partial curve]
35 | CC(=NCc1ccco1)C1=C(O)c2ccccc2C1=O | inconclusive: 20.6 µM [activator, partial curve, poor fit]
36 | Cc1ccc(/C=N/n2c(C)nc3ccccc3c2=O)s1 | inactive
37 | CC(=O)Nc1ccc(-c2cc(-c3ccccc3)nc(-c3ccccc3)n2)cc1 | inactive
38 | O=C(Cc1nc2ccccc2[nH]1)c1ccc(Br)cc1 | inactive
39 | O=C(NCCN1CCCCC1)c1cc(Cl)ccc1Cl | inactive
40 | CN(Cc1cn(-c2ccccc2)nc1-c1ccc(F)cc1)C(=O)CCC(=O)O | inactive
41 | O=C1c2ccccc2C(=O)N1CCCn1c(=O)oc2ccccc21 | inconclusive: 29.1 µM [activator, partial curve, poor fit]
42 | O=C(CCC(=O)N(CC(=O)NC1CCCCC1)c1ccc2c(c1)OCCO2)Nc1ccccn1 | inconclusive: 20.6 µM [activator, partial curve, poor fit]
43 | O=C(Nc1cccn(Cc2c(Cl)cccc2Cl)c1=O)c1ccc(Cl)cc1Cl | inconclusive: 25.9 µM [activator, partial curve, poor fit]
44 | CCCCC(=O)Nc1cc2nn(-c3ccc(OC)cc3)nc2cc1C | inconclusive: 9.2 µM [activator, partial curve]
45 | Cc1ccc(NC(=O)CSc2ccc(-c3ccccn3)nn2)c(C)c1 | inactive
46 | Cc1nc(NC(=O)c2csc3ccccc23)sc1C | inconclusive: 1.26 µM [activator, full curve, poor fit]
47 | Cc1csc(SCC(=O)Nc2ccccc2[N+](=O)[O-])n1 | inconclusive: 18.3 µM [activator, partial curve, poor fit]
48 | COC(=O)Cc1c(C)nc2nc(-c3ccc(Cl)cc3)[nH]n2c1=O | inconclusive: 25.9 µM [activator, partial curve, poor fit]
49 | CN1CCSc2ccc(C(=O)Nc3ccc(Cl)cc3)cc21 | inconclusive: 3.66 µM [activator, full curve, poor fit]
50 | CC(C)CNC(=O)CSc1nnc2ccccn12 | inactive

Row | Compound | Potency
51 | CNC(=O)c1[nH]cnc1C(=O)N[C@@H](Cc1ccccc1)C(=O)OCc1ccccc1 | inconclusive: 18.3 µM [activator, single point]
52 | c1ccc(CNc2ncnc3c2ncn3C2CCCCO2)cc1 (centres undefined) | inconclusive: 18.4 µM [activator, partial curve]
53 | Cn1c(=O)n(C)c2cc(NC(=O)c3ccc(F)cc3)ccc21 | inconclusive: 18.3 µM [activator, single point]
54 | COC(=O)c1ccc(COC(=O)c2cccn2C)o1 | inconclusive: 18.3 µM [activator, single point]
55 | CSc1nsc(SCC(=O)NCc2ccc(C)cc2)n1 | inactive
56 | COc1cc(NC2c3ccccc3C(=O)N2c2ccc(C)cn2)cc(OC)c1OC (centres undefined) | inconclusive: 14.6 µM [activator, partial curve, poor fit]
57 | N#Cc1c(-c2ccccc2)nc(-c2ccccc2)nc1N1CCOCC1 | inactive
58 | Cc1cccc(C(=O)Oc2ccc(/C=N/NC(=O)c3ccc(O)cc3)cc2)c1 | inactive
59 | Nc1nnc(/C=C/c2ccccc2Cl)s1 | inconclusive: 20.6 µM [activator, single point]
60 | O=C(O)CCCC(=O)Nc1ccc(N2CCCC2)cc1 | inactive
61 | Cc1ccc(C(=O)Nc2cccc(C(=O)N3CCOCC3)c2)cc1Cl | inconclusive: 20.6 µM [activator, partial curve, poor fit]
62 | CCOC(=O)c1cc2n(c1N)-c1ccccc1C2=O | inconclusive: 18.4 µM [activator, partial curve]
63 | Cc1ccc(-c2cc3c(nn2)-c2ccccc2C3=O)cc1 | inconclusive: 0.326 µM [activator, partial curve, poor fit]
64 | COc1ccc2[nH]c3c(c2c1)CCN1C(=O)C(CC(=O)NC/C=C(\C)CCC=C(C)C)C[C@H](C(=O)N(C(C)C)C(C)C)[C@@]31C (some centres undefined) | inactive
65 | CCOc1ccc(NC(=O)Nc2ccon2)cc1 | inconclusive: 23.1 µM [activator, partial curve, poor fit]
66 | O=C(Nc1ccc2c(c1)OCCO2)c1cccnc1 | inconclusive: 14.6 µM [activator, partial curve, poor fit]
67 | Cc1nnc(NCCc2ccccc2)c2ccccc12 | active: 9.2 µM
68 | CCOc1ccc(NC(=O)CSc2ccccc2N)cc1 | inconclusive: 18.3 µM [activator, partial curve, poor fit]
69 | NC(=O)c1ccccc1N/C=C/C(=O)c1ccc(F)cc1 | inconclusive: 2.91 µM [activator, single point]
70 | Cc1cc(C(=O)COc2ccccc2Cl)c(C)n1-c1ccc2c(c1)OCO2 | inconclusive: 11.6 µM [activator, partial curve, poor fit]
71 | CC(C)/C=N/NC(=O)c1cc(Br)ccc1O | inactive
72 | Cc1ccc(N=C(c2cccs2)N2CCOCC2)cc1 | inconclusive: 18.4 µM [activator, partial curve, poor fit]
73 | COc1ccc(O)c(-c2cc(-c3ccc(F)cc3)n[nH]2)c1 | inconclusive: 20.6 µM [activator, partial curve, poor fit]
74 | Cc1nc(SCC(=O)Nc2ccc3c(c2)OCO3)c(C#N)c2c1CCCC2 | inconclusive: 29.1 µM [activator, single point]
